# The supplement of paper PMC12632987
# In all, about 2,300 sequences were measured (“median log2 fold change of GCK-ALFA target abundance (FLAG IP / Myc IP barcode read proportion)”: median about 0.095, lowest 2% from about -0.47 on). The list shows a part of the results.
# B1: LC3A_147_486 (protein)
# chain: MKVIIDVLVKTKETVEKLKKRMEETKKKLEEKGIEVKLEIKVEEIEPGVYYVEITAEIKAKTKEEEQKAAQEVVDTVLDFEEENKDLVLGTLISIEETEE
# B2: LC3A_147_404 (protein)
# chain: VLAEIDIDILTKKGPELVEKLVEEIRERLEEMGVEVEIELKTEKIDEDTYFHEIKIKLRAETKEEAEEAVNEVLDIIDEFEEKNKDEILGSLISVEIKEE
# B3: LC3A_147_466 (protein)
# chain: YKVELTIDVLAKEKYEEALELLKEFAEKVKELGLDVKVKIREEKISENEVYLELEVEIETETLEEAEEAAKKVSELADELSEKLEELGAAVMISIDIEEA
# B4: LC3A_free_8_2501 (protein)
# chain: KSQEVVKEALEGLDKLEEELIKKAKELGLSELDILELELEIGSVKAEIISLSDKSPEEIVKETKEGLERVIELAKELSEELAKLAKELSEEILKRLEKLL
# B5: LC3A_28_871 (protein)
# chain: SHIEEQVEKIKKELEEQAKKGEDAVVEVEITESMSLEEAVELMNKVLEVAKEYVEKTGLKVSIVINYDGDQETLDAIADLAEKAEKENPKITVIIALPEE
# B6: LC3A_free_46_2349 (protein)
# chain: VKAEILIDLLAKDEETLKKAVEEIIKAAKEIAKKYNLEIKIETEISKLEDGSYYAEIKITLKGKNKEDVEKAVNELINKIEEIAKKYNVSAVISYEIKDV
# B7: LC3A_147_431 (protein)
# chain: YITTVDIDVLTKDAEEEVIKAAKEIEEELKAKGYEVELEIEVEELENGEKYIHIKITVKTETEEEAKEAADYIVDKFEELEEKLKDKILGSIISVEIEEA
# B8: LC3A_3_1373 (protein)
# chain: MEEKIKELLEFLKEKGKSEETLEAVRKALEALAEKGYEEAAETFIELMKELEDVPDELLLYFAEDVLEAVTEEDLSEEELIEFIKEEASVVRNESEIIEL
# B9: LC3A_3_1617 (protein)
# chain: LEELLKKALEALKEAGKSEETLKLVEEVVKLLLEKGYEEAARTFLELLIENKDLPEEILRDFVEEVKRLVEEEDLSEEELTKRIKEIAEIARNESEIEEL
# B10: LC3A_3_1853 (protein)
# chain: MEEIIKEIEKLLKELGRSEETIEAALKLAEALAKRGYENALKELLKKLKELKDLPDEILLDMFEDILAAVETKDLSEEETIKLINEEAETAKNEAEIEEL
# B11: LC3A_3_1620 (protein)
# chain: MEEEVKETLEELKKAGASEETLEAFRETAELLMEKGYYEALKTLIEEMRKIKDLPNEIILDALEEVKEVIETEDLNEEELIEEIKNIFRTARNEGEIIEL
# B12: LC3A_3_1394 (protein)
# chain: FEEIRKETIKTLKEFGKSEEVIKAAEKVLDALEKRGYEEAAKTLLEELKEMKDLSDELLLDFLNDVLDYLETNDDNEEEVIKFIKEEARIAKNEGEIEEL
# B13: LC3A_free_46_2398 (protein)
# chain: YKAIIDVDVYGLTEEQAEEFIKRVKEEAEKISKKYGVKVEIEVEVEKNPDGTYYVRITITITGEDKETVEKAATELIDGLEKIAEELGAAMIISEEFIDE
# B14: LC3A_45_1950 (protein)
# chain: MWEATVDVLVPREEFEKALEVLREMAERLERELGVEVEIDEEAVEEARKEAEENGEALITVRVRHEDEQVALDAADRIADELEERLSPSVAVIISVEKVP
# B15: LC3A_36_1337 (protein)
# chain: MVVIVLSAASEEVRAAEEAHYRAKGATVFAVAVEDLDEATKEEILAVVKAAGPDADIIIVAVAETEEGLAKVLKKASELADYIEEETGRTVIIEVDLVEK
# B16: LC3A_free_46_2433 (protein)
# chain: YLVEIDIDLLHEDEEVLKKAVEEIVEAIKEIAEKYNGEVEIEVSFSKDEDGSYFAEIKAKIKVETKEKAEEVANELIDKIDEIAEKYDVSYIISVDIEEL
# B17: LC3A_3_1418 (protein)
# chain: MEEERAALLEELRAAGHSDETLAAVRALLDLLLARGAEEEARRVIELFREAKDLSSERLLEVAEEVRAALEAGEITPEEAVELAKELLSIARSEEEIEEL
# B18: LC3A_free_39_2286 (protein)
# chain: SAAELAAAVARLAALLDEIPGLSAEERATILDAARRDLATARAILDALEELREAGGDVGAAAREIAAKIRELEAAGASDEEITAEVIELARDLVNLIPID
# B19: LC3A_3_1871 (protein)
# chain: MAAVEARILALLRARGRSPETIAAARELLAALRARGYEEAARVLLAELEELADLPDELLLAMFEDLLRRVTEEDLDEEEAIEAIREEARTARNEAEIEEL
# B20: LC3A_147_423 (protein)
# chain: YRVVVEAYFLVKKDGEEAKEAIRELAERLREEGAKRVEIEEEEDEEDGTILIKVTIEAERETLEEAQAFADRVIDDFEELEEKHKDTLKLGAISVEIEKA
# B21: LC3A_28_1298 (protein)
# chain: SPLREELEKVLKEAKEAAAKGEATVFTLKVTADADEEDIDYVIETMEEIAELLKDVPGSAIIVDVEAGVPQEHIDRLADKAEEIEKKYPNVTVIIALEEE
# B22: LC3A_free_46_2364 (protein)
# chain: MEIDIDLLAKGKSEEEVEKIAKEIEEEIKKAAKEHGVEVEIETEIEKLEDGDYFINIKIKAKAETKEKAQAFEQAVIDIIEEFSLKYNLAAIISITEVEP
# B23: LC3A_free_26_2155 (protein)
# chain: EEFVDLGALDKALDLLDEIKKLLKEHAEKLPEALALVEQAREQLDKLTLEAFEAALALLDQAKKLVEAEKSLPEELKEKLLKLLDEARAHVQEIIEVMKS
# B24: LC3A_28_1072 (protein)
# chain: SSVEEEIEKAKKEAEEARKKGEPVVVTVEFKETDTDEDIEKKIETVKEIGEILKDVPDAAIVVSLDGENAKKYLDEIAKVGEEIEEKYPNITVIIALSEE
# B25: LC3A_28_839 (protein)
# chain: SKIDEEIEKALKKAKEAAEKGESEVITINVFGGATEEEIEKVIEALEEIAEILKDIKDQAIIINLEEPIKEEHLNKLIDKAEEIEKKYPNITVIIALPED
# B26: LC3A_28_1214 (protein)
# chain: SATDAAIADAKAQFAAAIASGEPTTIVVKIPKTVTLEGAKAIMDAIEAEVEKAKDLKGLSIVIDVEEGVSQEVINLIADRADEIEKKYPNVTVIIALEEE
# B27: LC3A_free_46_2392 (protein)
# chain: IEGEIDLLLEGATEEQVKELAEAAEKKIRELAKEKGINVEIEVEIEKLEDGSYYVRIKVKSDSKDKNTVLDILDETEEYLEEKAKELGVKLSSIISVKES
# B28: LC3A_28_1229 (protein)
# chain: SPVDEQIAAAKAEAEQAKAEGESRVITIKVSGETTLEEAEKIAEAMEEIAEMLKDLPHQTILIDVERGVSQEVLDLLAEAAERIEKKYPNVTVIIALEEE
# B29: LC3A_3_1548 (protein)
# chain: MEELIKETLEALRKAGKSEEVLKAAKETFEALKKKGYENALKTFAEEAKELLHLPDELLLDFFEEVLEVIETEDLNEEELIERIKEIARTTRNEGEIIEL
# Target: MAP1LC3A, Q9H492
# Assay: median log2 fold change of GCK-ALFA target abundance (FLAG IP / Myc IP barcode read proportion) (log2 ratio); each designed protein is fused to an ALFA-tag nanobody in HEK293 cells to bring the named protein to FLAG-tagged glucokinase (GCK); Myc marks an untargeted standard; higher = target protein stabilised (more abundant)
# Conditions: target protein: 3xFLAG-MCP-GCK-ALFA reporter; HEK293 landing pad (RPLP)
# Procedure, shortened: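 Binders fused to an ALFA nanobody were recombined as a library into HEK293 landing-pad cells, which were induced with 2 μg mL^−1 doxycycline and then transfected to express a FLAG-tagged target and a Myc-tagged standard. After 48 h, circular RNA barcodes recovered by anti-FLAG and anti-Myc immunoprecipitation of lysates were reverse transcribed, amplified and sequenced. Each binder's target abundance is the median log2 ratio of FLAG to Myc barcode read proportions, from barcodes present at ≥10^−7 in both replicates, binders carrying ≥3 barcodes per replicate, a 10^−6 pseudocount and pooled replicates.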
row,Binder,median log2 fold change
1,B1,-0.298
2,B2,-0.269
3,B3,0.065
4,B4,0.00892
5,B5,-0.463
6,B6,0.257
7,B7,0.117
8,B8,-0.201
9,B9,0.468
10,B10,0.119
11,B11,-0.0392
12,B12,0.351
13,B13,-0.116
14,B14,0.0029
15,B15,0.15
16,B16,0.126
17,B17,0.208
18,B18,0.187
19,B19,0.0802
20,B20,-0.164
21,B21,0.226
22,B22,-0.127
23,B23,0.117
24,B24,0.165
25,B25,0.00879
26,B26,0.367
27,B27,0.108
28,B28,0.178
29,B29,0.187
